To fix the notation:
T1: human IL-2Rβ (CD122), recombinant, biotinylated (human, UniProt P14784 27-239, limits assumed, biotinylated (site not stated))
T1 sequence (looked up): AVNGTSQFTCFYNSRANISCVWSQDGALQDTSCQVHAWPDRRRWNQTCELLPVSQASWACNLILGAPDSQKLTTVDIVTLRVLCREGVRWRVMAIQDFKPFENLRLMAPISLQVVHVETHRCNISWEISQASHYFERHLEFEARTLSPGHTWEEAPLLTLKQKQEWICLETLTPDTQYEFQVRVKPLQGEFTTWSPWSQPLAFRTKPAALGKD

T2: human IL-2Rα (CD25), recombinant, biotinylated (human, UniProt P01589 22-213, limits assumed, biotinylated (site not stated))
T2 construct: also called human CD25 (IL-2Rα) receptor
T2 sequence (looked up): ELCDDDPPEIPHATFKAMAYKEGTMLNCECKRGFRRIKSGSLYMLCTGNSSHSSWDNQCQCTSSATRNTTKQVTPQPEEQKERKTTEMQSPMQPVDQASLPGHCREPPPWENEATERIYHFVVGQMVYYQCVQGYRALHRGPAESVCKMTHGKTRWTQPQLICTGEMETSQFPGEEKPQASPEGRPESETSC

B1: IgG fusion IL-2 mutein D84E (other)
chain: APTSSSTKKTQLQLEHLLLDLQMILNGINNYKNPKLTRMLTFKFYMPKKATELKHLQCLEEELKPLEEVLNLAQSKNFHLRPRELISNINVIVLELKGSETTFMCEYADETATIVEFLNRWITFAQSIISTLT
B2: IgG fusion IL-2 mutein K35T (other)
chain: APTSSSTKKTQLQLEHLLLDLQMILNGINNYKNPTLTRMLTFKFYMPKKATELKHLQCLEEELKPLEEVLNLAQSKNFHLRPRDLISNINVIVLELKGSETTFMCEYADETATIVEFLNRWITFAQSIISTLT
B3: IgG fusion IL-2 mutein I92Y (other)
chain: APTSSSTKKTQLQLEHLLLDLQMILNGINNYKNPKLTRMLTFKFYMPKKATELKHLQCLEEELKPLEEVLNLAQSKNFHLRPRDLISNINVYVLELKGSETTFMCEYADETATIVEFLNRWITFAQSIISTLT
B4: IgG fusion IL-2 mutein P65N (other)
chain: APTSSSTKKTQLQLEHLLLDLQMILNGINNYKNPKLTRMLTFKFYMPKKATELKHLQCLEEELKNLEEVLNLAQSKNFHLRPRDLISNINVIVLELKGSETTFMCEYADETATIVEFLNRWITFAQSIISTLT
B5: IgG fusion IL-2 mutein E68L (other)
chain: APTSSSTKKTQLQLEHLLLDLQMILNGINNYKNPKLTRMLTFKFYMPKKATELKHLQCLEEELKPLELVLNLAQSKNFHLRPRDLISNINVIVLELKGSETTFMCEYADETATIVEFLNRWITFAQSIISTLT
B6: IgG fusion IL-2 mutein L12I (other)
chain: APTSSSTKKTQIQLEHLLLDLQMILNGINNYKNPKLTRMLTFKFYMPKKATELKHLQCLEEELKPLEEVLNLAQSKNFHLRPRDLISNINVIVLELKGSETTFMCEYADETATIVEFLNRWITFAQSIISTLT
B7: IgG fusion IL-2 mutein E68R (other)
chain: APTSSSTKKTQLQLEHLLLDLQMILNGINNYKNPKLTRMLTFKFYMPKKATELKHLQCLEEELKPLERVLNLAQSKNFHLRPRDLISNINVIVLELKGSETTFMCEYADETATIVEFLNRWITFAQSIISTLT
B8: IgG fusion IL-2 mutein F42M (other)
chain: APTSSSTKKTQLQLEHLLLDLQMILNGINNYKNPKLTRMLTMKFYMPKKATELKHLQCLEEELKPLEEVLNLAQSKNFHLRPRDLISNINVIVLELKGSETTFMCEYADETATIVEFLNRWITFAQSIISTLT
B9: IgG fusion IL-2 mutein L19I (other)
chain: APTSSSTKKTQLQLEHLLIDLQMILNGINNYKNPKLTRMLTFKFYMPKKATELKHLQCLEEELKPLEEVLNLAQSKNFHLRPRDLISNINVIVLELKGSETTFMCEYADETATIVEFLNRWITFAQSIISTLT
B10: IgG fusion IL-2 mutein K48S (other)
chain: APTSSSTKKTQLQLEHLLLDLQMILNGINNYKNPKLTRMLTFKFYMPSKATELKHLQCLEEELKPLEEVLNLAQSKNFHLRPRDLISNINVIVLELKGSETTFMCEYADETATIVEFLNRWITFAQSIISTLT
B11: IgG fusion IL-2 mutein E68Y (other)
chain: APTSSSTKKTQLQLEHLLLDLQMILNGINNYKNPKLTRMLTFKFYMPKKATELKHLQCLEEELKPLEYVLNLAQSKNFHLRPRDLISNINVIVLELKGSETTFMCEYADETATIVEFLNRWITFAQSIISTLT
B12: IgG fusion IL-2 mutein T111M (other)
chain: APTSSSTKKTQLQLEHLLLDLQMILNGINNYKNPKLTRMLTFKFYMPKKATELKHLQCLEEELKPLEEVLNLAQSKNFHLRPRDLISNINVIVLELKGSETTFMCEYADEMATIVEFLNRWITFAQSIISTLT
B13: IgG fusion IL-2 mutein T111Q (other)
chain: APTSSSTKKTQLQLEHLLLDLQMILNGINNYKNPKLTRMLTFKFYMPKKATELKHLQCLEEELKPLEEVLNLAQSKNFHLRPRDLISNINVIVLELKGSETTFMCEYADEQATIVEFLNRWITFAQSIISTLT
B14: IgG fusion IL-2 mutein E15T (other)
chain: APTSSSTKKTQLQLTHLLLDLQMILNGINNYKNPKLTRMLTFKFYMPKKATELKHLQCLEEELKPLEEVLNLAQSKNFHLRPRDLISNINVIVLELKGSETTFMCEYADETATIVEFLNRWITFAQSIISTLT
B15: IgG fusion IL-2 mutein M23L (other)
chain: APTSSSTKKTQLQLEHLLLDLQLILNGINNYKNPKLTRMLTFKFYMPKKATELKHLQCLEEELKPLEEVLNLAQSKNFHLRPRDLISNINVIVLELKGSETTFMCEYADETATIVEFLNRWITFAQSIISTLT
B16: IgG fusion IL-2 mutein P65K (other)
chain: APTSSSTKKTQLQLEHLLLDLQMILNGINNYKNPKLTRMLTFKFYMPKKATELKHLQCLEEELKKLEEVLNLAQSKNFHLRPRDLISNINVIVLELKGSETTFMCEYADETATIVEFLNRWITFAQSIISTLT
B17: IgG fusion IL-2 mutein L72F (other)
chain: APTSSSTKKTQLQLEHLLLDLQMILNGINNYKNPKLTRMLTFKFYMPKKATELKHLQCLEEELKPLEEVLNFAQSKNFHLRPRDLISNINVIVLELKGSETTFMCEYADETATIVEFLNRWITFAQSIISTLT
B18: IgG fusion IL-2 mutein T111S (other)
chain: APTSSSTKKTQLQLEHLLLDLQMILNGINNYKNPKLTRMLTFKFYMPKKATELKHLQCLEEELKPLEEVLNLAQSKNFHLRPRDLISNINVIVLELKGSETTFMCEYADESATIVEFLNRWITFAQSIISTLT

The source of these data is patent publication US20230340054A1 (published 2023).

A word on the Kd: it is the constant that tells how readily two partners part at equilibrium. In general, koff refers to a measure of how fast the partners let go of each other. The kon is a measure of how fast the partners come together.

The first experiment concerns the target T1, human IL-2Rβ (CD122), recombinant, …. Briefly: BLI. For orientation: Biolayer interferometry detects binding as a change in optical thickness at a sensor tip.
For B1, the Kd was 173 nM, the koff turned out to be 7.23 s⁻¹ and the kon worked out at 4.19e+07 M⁻¹ s⁻¹.

Consider B2, for which the Kd is 464 nM, the koff amounted to 0.311 s⁻¹ and the kon stood at 669000 M⁻¹ s⁻¹.

For B3, the Kd stood at 396 nM, the koff amounted to 0.101 s⁻¹ and the kon is 255000 M⁻¹ s⁻¹.

B4: the Kd worked out at 6460 nM, the koff was 6.95 s⁻¹ and the kon was found to be 1.08e+06 M⁻¹ s⁻¹.

For the molecule B5, the Kd turned out to be 113000 nM and the kon came to 5.22e+06 M⁻¹ s⁻¹.

B6: the Kd is 307 nM, the koff was 0.109 s⁻¹ and the kon is 356000 M⁻¹ s⁻¹.

In the case of B7, the Kd is 3280 nM, the koff worked out at 2.46 s⁻¹ and the kon worked out at 751000 M⁻¹ s⁻¹.

As for B8, the Kd was determined as 228 nM, the koff came out at 0.276 s⁻¹ and the kon is 1.21e+06 M⁻¹ s⁻¹.

B9: the Kd came out at 232 nM, the koff came out at 0.559 s⁻¹ and the kon was 2.41e+06 M⁻¹ s⁻¹.

B10: the Kd came to 1740 nM, the koff turned out to be 1.01 s⁻¹ and the on-rate (kon) was found to be 581000 M⁻¹ s⁻¹.

Consider B11, for which the Kd came to 213 nM, the koff stood at 0.0763 s⁻¹ and the kon is 358000 M⁻¹ s⁻¹.

Consider B12, for which the Kd was found to be 2090 nM, the koff came out at 0.785 s⁻¹ and the kon is 376000 M⁻¹ s⁻¹.

Turning to B13, the Kd was 74.1 nM, the dissociation rate constant (koff) was determined as 0.0361 s⁻¹ and the kon stood at 486000 M⁻¹ s⁻¹.

Take B14: the Kd came out at 220 nM, the koff stood at 0.154 s⁻¹ and the kon is 699000 M⁻¹ s⁻¹.

As to B15, the Kd was 1400 nM, the koff was 0.121 s⁻¹ and the kon turned out to be 86700 M⁻¹ s⁻¹.

In the case of B16, the Kd stood at 12500 nM, the koff amounted to 1.62 s⁻¹ and the kon was 129000 M⁻¹ s⁻¹.

For the molecule B17, the Kd is 357 nM, the koff worked out at 0.502 s⁻¹ and the kon was 1.4e+06 M⁻¹ s⁻¹.

In the case of B18, the Kd is 199 nM, the koff was 0.0811 s⁻¹ and the on-rate constant (kon) was found to be 407000 M⁻¹ s⁻¹.

A further experiment deals with T2, human IL-2Rα (CD25), recombinant, …. The experiment can be described thus: BLI.
With B1, the Kd turned out to be 16.1 nM, the koff is 0.0169 s⁻¹ and the kon was determined as 1.05e+06 M⁻¹ s⁻¹.

On to B2, for which the Kd is 39.4 nM, the koff is 0.0389 s⁻¹ and the kon was 988000 M⁻¹ s⁻¹.

Take B3: the Kd was 21.3 nM, the koff turned out to be 0.0185 s⁻¹ and the on-rate constant (kon) was found to be 871000 M⁻¹ s⁻¹.

With B4, the Kd was 17.1 nM, the off-rate (koff) was found to be 0.000791 s⁻¹ and the kon was 46300 M⁻¹ s⁻¹.

B5: the Kd was 27 nM, the koff was determined as 0.0107 s⁻¹ and the kon came to 397000 M⁻¹ s⁻¹.

In the case of B6, the Kd was 22.7 nM, the koff worked out at 0.0215 s⁻¹ and the kon was 944000 M⁻¹ s⁻¹.

B7: the Kd was determined as 70.9 nM, the koff was 0.0175 s⁻¹ and the kon was determined as 247000 M⁻¹ s⁻¹.

With B8, the Kd was determined as 26.3 nM, the koff is 0.0219 s⁻¹ and the on-rate constant (kon) worked out at 834000 M⁻¹ s⁻¹.

B9: the Kd stood at 34.1 nM, the koff turned out to be 0.0226 s⁻¹ and the kon is 664000 M⁻¹ s⁻¹.

For the molecule B10, the Kd turned out to be 63.4 nM, the koff was determined as 0.0261 s⁻¹ and the kon came out at 412000 M⁻¹ s⁻¹.

In the case of B11, the Kd is 59.5 nM, the koff turned out to be 0.0578 s⁻¹ and the kon was found to be 971000 M⁻¹ s⁻¹.

Regarding B12, the Kd came to 10.5 nM, the koff stood at 0.00662 s⁻¹ and the association rate constant (kon) came out at 631000 M⁻¹ s⁻¹.

Turning to B13, the Kd worked out at 25.7 nM, the koff was 0.0352 s⁻¹ and the kon came out at 1.37e+06 M⁻¹ s⁻¹.

For B14, the Kd was 10 nM, the koff came out at 0.0171 s⁻¹ and the kon was determined as 1.71e+06 M⁻¹ s⁻¹.

In the case of B15, the Kd was 19.4 nM, the koff worked out at 0.0148 s⁻¹ and the kon was 766000 M⁻¹ s⁻¹.

Turning to B16, the Kd came to 9.08 nM, the koff is 0.00127 s⁻¹ and the kon turned out to be 140000 M⁻¹ s⁻¹.

Regarding B17, the Kd is 33.2 nM, the koff came to 0.0166 s⁻¹ and the kon amounted to 499000 M⁻¹ s⁻¹.

Regarding B18, the Kd is 47.3 nM, the koff was determined as 0.0288 s⁻¹ and the kon came to 610000 M⁻¹ s⁻¹.
